From PMC1762320, “Separation of Anti-Proliferation and Anti-Apoptotic Functions of Retinoblastoma Protein through Targeted Mutations of Its A/B Domain” (PLoS ONE, 2006)
Results are given in words; binding and its absence hold for the method and conditions named. Binding seen in cells or lysates may run through a third protein. Some binding calls cover weakened binding; strength is not graded here. For part of these data: Where a sequence is shown, tags or fusion partners need not be part of it.

Amino acid sequences for entries named in this document (tags omitted). A change or cut given only in a name is not applied to a line headed by its entry.
UniProt P03129: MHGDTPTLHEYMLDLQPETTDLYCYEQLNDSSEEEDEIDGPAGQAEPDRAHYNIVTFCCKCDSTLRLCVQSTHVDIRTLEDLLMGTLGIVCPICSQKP
UniProt O00716: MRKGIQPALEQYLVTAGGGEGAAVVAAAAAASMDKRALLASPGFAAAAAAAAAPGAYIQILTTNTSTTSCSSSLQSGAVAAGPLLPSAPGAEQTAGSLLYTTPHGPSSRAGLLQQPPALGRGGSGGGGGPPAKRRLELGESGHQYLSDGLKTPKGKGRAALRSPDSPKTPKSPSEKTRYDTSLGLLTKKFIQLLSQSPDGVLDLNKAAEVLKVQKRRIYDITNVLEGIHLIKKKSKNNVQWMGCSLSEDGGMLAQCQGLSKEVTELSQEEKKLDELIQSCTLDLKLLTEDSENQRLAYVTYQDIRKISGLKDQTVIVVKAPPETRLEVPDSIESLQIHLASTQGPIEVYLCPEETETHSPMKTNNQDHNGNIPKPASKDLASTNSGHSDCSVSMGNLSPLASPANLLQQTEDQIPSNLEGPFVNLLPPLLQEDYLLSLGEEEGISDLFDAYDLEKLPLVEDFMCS

T1: GST-RB (amino acids 395 through 928) (human) (UniProt P06400)
T1 sequence: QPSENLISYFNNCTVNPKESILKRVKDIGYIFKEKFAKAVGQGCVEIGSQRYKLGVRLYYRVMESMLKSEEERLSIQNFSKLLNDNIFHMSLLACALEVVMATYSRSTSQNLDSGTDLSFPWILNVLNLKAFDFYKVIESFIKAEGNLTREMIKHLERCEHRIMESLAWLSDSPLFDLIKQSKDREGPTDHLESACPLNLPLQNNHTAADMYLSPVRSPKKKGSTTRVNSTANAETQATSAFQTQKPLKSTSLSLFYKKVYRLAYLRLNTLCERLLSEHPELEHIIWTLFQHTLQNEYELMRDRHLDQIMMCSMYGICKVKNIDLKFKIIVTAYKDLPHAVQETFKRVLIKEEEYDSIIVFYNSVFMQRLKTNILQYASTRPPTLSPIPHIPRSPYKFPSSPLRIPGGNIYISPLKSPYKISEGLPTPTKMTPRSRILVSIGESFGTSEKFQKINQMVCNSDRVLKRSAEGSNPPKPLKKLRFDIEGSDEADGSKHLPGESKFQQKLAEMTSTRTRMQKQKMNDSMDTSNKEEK

T2: GST-RB-K (amino acids 395 through 928, K530A) (human) (UniProt P06400)
T2 sequence: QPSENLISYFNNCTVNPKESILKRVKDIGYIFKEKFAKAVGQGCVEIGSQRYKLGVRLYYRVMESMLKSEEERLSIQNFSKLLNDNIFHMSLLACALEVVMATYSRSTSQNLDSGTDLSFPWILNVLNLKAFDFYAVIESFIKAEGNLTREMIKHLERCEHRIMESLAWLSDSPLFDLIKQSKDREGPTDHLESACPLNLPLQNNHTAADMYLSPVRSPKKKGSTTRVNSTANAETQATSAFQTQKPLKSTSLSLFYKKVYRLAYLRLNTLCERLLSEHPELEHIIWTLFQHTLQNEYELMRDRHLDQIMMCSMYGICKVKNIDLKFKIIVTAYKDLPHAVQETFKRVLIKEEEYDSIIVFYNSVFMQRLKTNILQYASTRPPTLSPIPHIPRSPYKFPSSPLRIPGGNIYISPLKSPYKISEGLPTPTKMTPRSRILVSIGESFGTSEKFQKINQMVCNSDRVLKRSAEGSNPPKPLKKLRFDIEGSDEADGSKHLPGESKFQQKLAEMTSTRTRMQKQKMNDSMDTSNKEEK

B1: retinoblastoma protein RB (wild type, expressed in cells) (natural protein, human, UniProt P06400 1-928, looked up)
chain: MPPKTPRKTAATAAAAAAEPPAPPPPPPPEEDPEQDSGPEDLPLVRLEFEETEEPDFTALCQKLKIPDHVRERAWLTWEKVSSVDGVLGGYIQKKKELWGICIFIAAVDLDEMSFTFTELQKNIEISVHKFFNLLKEIDTSTKVDNAMSRLLKKYDVLFALFSKLERTCELIYLTQPSSSISTEINSALVLKVSWITFLLAKGEVLQMEDDLVISFQLMLCVLDYFIKLSPPMLLKEPYKTAVIPINGSPRTPRRGQNRSARIAKQLENDTRIIEVLCKEHECNIDEVKNVYFKNFIPFMNSLGLVTSNGLPEVENLSKRYEEIYLKNKDLDARLFLDHDKTLQTDSIDSFETQRTPRKSNLDEEVNVIPPHTPVRTVMNTIQQLMMILNSASDQPSENLISYFNNCTVNPKESILKRVKDIGYIFKEKFAKAVGQGCVEIGSQRYKLGVRLYYRVMESMLKSEEERLSIQNFSKLLNDNIFHMSLLACALEVVMATYSRSTSQNLDSGTDLSFPWILNVLNLKAFDFYKVIESFIKAEGNLTREMIKHLERCEHRIMESLAWLSDSPLFDLIKQSKDREGPTDHLESACPLNLPLQNNHTAADMYLSPVRSPKKKGSTTRVNSTANAETQATSAFQTQKPLKSTSLSLFYKKVYRLAYLRLNTLCERLLSEHPELEHIIWTLFQHTLQNEYELMRDRHLDQIMMCSMYGICKVKNIDLKFKIIVTAYKDLPHAVQETFKRVLIKEEEYDSIIVFYNSVFMQRLKTNILQYASTRPPTLSPIPHIPRSPYKFPSSPLRIPGGNIYISPLKSPYKISEGLPTPTKMTPRSRILVSIGESFGTSEKFQKINQMVCNSDRVLKRSAEGSNPPKPLKKLRFDIEGSDEADGSKHLPGESKFQQKLAEMTSTRTRMQKQKMNDSMDTSNKEEK

What was measured:
[1] = target: T1, GST-RB (amino acids 395 through 928) (human); assay: pull-down; by the legend: GST-RB proteins immobilised on glutathione Sepharose, incubated with lysates of 293T cells expressing HA-E2F3 and DP1; anti-HA blot (the text calls it a co-immunoprecipitation); only the target purified
[2] = target: T2, GST-RB-K (amino acids 395 through 928, K530A) (human); assay: as above
[3] = target: GST-E7 (human papilloma virus-16, full-length) (human papilloma virus-16) (UniProt P03129); assay: pull-down; GST-E2F1 or GST-E7 immobilised on glutathione-Sepharose, incubated with whole cell lysates of adenovirus-infected MDA-MB468 cells; 25 mM Tris-HCl pH 7.5, 250 mM KCl, 0.1% Triton X-100, 0.5 mM EDTA, 0.1 mM DTT; anti-RB blot; only the target purified

| Molecule | binding [1] | binding [2] | binding [3] |
| --- | --- | --- | --- |
| HA-tagged E2F3 co-expressed with DP1 (E2F3/DP1) (from UniProt O00716 1-465; Q14186 1-410) (complex) | binds | binds weakly |  |
| RB-K530A (expressed in cells) (from UniProt P06400 1-928) |  |  | binds |
| RB-K530A/N757F (expressed in cells) (from UniProt P06400 1-928) |  |  | no binding |
| RB-N757F (expressed in cells) (from UniProt P06400 1-928) |  |  | no binding |
| B1 |  |  | binds |
